Laboratory results from paper PMC4336329 (PLoS ONE, 2015).
In all, about 310,000 compounds went through this assay and about 14,000 (4.5%) showed an effect of 50% or more. Effects have a minus sign here. The list shows a part of the results.

These compounds were tested against human ether-à-go-go-related gene (hERG) potassium channel (human, UniProt Q12809) (assay: primary screen, population patch clamp on CHO cells stably expressing hERG).
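Also: peak tail current of the secondary pulse compared with the same well before compound.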

Chain of human ether-à-go-go-related gene (hERG) potassium channel (Q12809 whole entry, looked up): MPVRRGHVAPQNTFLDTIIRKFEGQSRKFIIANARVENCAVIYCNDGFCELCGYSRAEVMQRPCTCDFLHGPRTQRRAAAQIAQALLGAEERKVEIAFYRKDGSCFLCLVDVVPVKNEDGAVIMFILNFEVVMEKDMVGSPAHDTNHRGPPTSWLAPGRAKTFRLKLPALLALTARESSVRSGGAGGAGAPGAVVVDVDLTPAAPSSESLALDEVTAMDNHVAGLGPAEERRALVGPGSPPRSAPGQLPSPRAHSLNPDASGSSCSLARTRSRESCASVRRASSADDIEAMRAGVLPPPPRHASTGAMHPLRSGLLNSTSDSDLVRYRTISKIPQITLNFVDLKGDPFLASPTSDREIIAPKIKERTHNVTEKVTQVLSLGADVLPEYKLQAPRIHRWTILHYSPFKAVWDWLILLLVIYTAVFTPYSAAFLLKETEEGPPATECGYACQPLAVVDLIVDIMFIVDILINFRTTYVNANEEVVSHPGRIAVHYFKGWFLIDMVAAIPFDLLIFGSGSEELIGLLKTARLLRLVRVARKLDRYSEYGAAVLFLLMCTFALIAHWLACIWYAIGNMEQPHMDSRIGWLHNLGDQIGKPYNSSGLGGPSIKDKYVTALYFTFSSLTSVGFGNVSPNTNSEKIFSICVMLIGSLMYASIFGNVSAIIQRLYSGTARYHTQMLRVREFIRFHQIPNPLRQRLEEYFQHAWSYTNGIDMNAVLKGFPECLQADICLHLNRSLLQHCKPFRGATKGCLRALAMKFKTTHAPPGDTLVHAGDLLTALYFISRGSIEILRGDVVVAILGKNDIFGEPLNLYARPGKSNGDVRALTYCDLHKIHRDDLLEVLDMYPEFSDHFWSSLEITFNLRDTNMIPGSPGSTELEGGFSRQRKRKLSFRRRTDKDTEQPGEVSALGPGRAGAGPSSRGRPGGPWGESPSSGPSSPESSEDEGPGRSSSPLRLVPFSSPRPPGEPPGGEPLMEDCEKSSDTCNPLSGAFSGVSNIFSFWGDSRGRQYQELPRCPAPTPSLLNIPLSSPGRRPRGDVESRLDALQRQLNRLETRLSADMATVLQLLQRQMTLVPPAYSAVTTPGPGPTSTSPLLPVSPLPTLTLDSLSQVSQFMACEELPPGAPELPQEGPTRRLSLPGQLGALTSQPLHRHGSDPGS

Compound | hERG current change (%, negative = inhibition) at 10uM [%]
CC(=O)c1ccc(OCc2cc(C(=O)NC3CCCCC3)no2)cc1 | 5.17
Cc1ccc(-n2c(C)cc3c2CC(C)(C)CC3=O)cc1C | 10.5
CCSc1nnc(NC(=O)[C@@H](NC(=O)c2ccccc2F)C(C)C)s1 | -8.27
COc1cc(S(=O)(=O)N2CCCN(C)CC2)ccc1NC(C)=O | 15.8
COc1ccc(/C=C2\SC(=S)N(CCCC(=O)Nc3ccc(C(=O)O)cc3)C2=O)cc1OC | 1.9
Cc1cc(NC(=O)c2ccccc2-c2ccccc2)ccc1Br | -6.32
Cc1nn(CC(=O)O)c(=O)c2ccccc12 | -2.7
O=C1CCCN2N=C(SCC(=O)Nc3ccc(F)cc3F)SC2=N1 | -0.806
CC(=O)n1nc(-c2ccco2)nc1N | 16.4
Cc1cc(C)n2nc(SCc3ccccc3)nc2n1 | -25.6
CC(=O)c1ccc(NC(=O)/C(=C\c2ccccc2)NC(=O)/C=C/c2ccccc2)cc1 | -2.95
CC(=O)C1=C(O)CC(c2ccccc2)CC1=NCCc1ccccc1 (centres unmarked) | -45.8
COc1ccc(/C=N/NC(=O)c2ccc(COc3cccc4cccnc34)cc2)cc1OC | -14.7
O=C(Oc1oc(-c2ccco2)nc1C=Nc1ccc(Cl)cc1)c1ccco1 | 7.62
COc1cc(OC)cc(C(=O)N(Cc2cc3cc(C)ccc3[nH]c2=O)C(C)C)c1 | -7.49
C/C(=N\OCC(=O)Nc1ccccc1C(=O)O)c1cccs1 | 22.1
Fc1ccccc1Cc1nnc2n1N=C(c1ccc(Cl)cc1)CS2 | -10.1
O=C1COc2ccc(C(=O)COC(=O)c3ccccc3[N+](=O)[O-])cc2N1 | -4.09
COc1ccc(NC(=S)NC(=O)C2CCC2)cc1 | 7.29
O=C(CSc1nnnn1C1CCCCC1)NCc1cccs1 | 11.7
COc1cc(C(O)P(=O)(OC(C)C)OC(C)C)cc(OC)c1OC (centres unmarked) | -8.04
COC(=O)C(Cc1ccccc1)NC(=O)CNC(=O)c1ccccc1OC (centres unmarked) | 10.3

Compound | hERG current change (%, negative = inhibition) at 10uM [%]
O=C(COc1ccc(Cl)cc1)NNC(=O)c1ccccn1 | 0.692
COc1ccc(S(=O)(=O)N2CCN(c3ccccc3OC)CC2)cc1C(=O)N1CCCCC1 | 7.51
CCCOc1ccc(C(=O)ON=C2CCN(C)CC2)cc1.Cl | -9.07
Oc1ccccc1N1CCN(c2ncnc3sc(-c4ccccc4)cc23)CC1 | -6.19
COC(=O)c1cnc2c(C(F)(F)F)cccc2c1OC | -14.6
Cc1ccc(NC(=O)C(C)N2C(=O)c3ccccc3C2=O)cc1C (centres unmarked) | 4.98
Cc1cccc(C(=O)N2CCCC(N3CCN(c4ccccc4)CC3)C2)n1 (centres unmarked) | -2.91
CCC(=O)Nc1cccc(NC(=S)NC(=O)c2ccccc2)c1 | -2.18
O=C(NCC1CCCO1)c1onc(CSc2cccc(Cl)c2)c1C(=O)O (centres unmarked) | 5.54
O=C(CSc1nc2ccccc2n1CC(=O)N1CCCC1)N1CCN(C(=O)c2ccco2)CC1 | -0.921
Cc1ccc(C)c(NC(=O)c2ccccc2NC(=O)C2CCCO2)c1 (centres unmarked) | -0.135
N#CC1=C(N)N2C(=C(C#N)C13CCCCC3)SC1CCCCC12O (centres unmarked) | 2.49
O=C(Nc1ccc(NC(=O)C2CCCCC2)nc1)c1cccs1 | 9.16
CCCCCN(C(=O)CCC(=O)OCC(=O)c1ccc(F)c(F)c1)c1c(N)n(CCCC)c(=O)[nH]c1=O | -33.7
O=c1cc([O-])[n+]2c3n1CCCN3CCC2 | -13.3
O=C(/C=C/c1ccc(OCc2ccccc2)c(OCc2ccccc2)c1)c1cccnc1 | -14.8
CC(C)(C)c1cc(C(=O)Nc2ccc(F)cc2)n(Cc2ccc(F)cc2)n1 | 8.22
O=C1COc2ccc(C(=O)COC(=O)CNS(=O)(=O)c3cccc(F)c3)cc2N1 | -10.4
CC1C(=O)C(C)C(c2ccco2)NC1c1ccco1.Cl (centres unmarked) | 13.9
Nc1ccc(Cl)c(NC(=O)c2cccs2)c1 | 5.51
COC(=O)C1=C(c2cccc(OCc3ccccc3)c2)C[C@@H]2CC[C@H]1N2C(=O)NCc1ccc(Br)cc1 | 19.3
COC(=O)C1=C(C(=O)OC)C(c2ccc(OC)c(OC)c2)c2sc(=O)[nH]c2S1 (centres unmarked) | -54.8
